Assay results taken from ChEMBL document CHEMBL1201862, “PubChem BioAssay data set” (2004).
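96-well plates; 48 h exposure; 5 concentrations. Endpoints by linear interpolation between flanking doses. Not reached: highest tested concentration assigned. GI50: concentration for 50% inhibition of growth.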 The source made the active and inactive calls. Cut-off read from the data, not from the text of the source: active = GI50 up to about 1.1 µM and inactive = higher.

Legend:
Assay in all cases: growth of human tumour cells (NCI), 48 h
[1] = tested on: SR
[2] = tested on: Hs-578T
[3] = tested on: EKVX
[4] = tested on: COLO 205
[5] = tested on: SF-295
[6] = tested on: OVCAR-5
[7] = tested on: SF-268
[8] = tested on: SW-620
[9] = tested on: OVCAR-3
[10] = tested on: A498
[11] = tested on: UO-31
[12] = tested on: NCI-H23
[13] = tested on: CAKI-1
[14] = tested on: MOLT-4
[15] = tested on: SK-OV-3
[16] = tested on: SNB-75
[17] = tested on: HOP-62
[18] = tested on: MDA-N
[19] = tested on: OVCAR-8
[20] = tested on: HOP-92
[21] = tested on: LOX IMVI
[22] = tested on: BT-549
[23] = tested on: RXF 393
[24] = tested on: NCI-H460
[25] = tested on: HCT-116
[26] = tested on: M14
[27] = tested on: Malme-3M
[28] = tested on: A549
[29] = tested on: SK-MEL-28
[30] = tested on: SNB-19
[31] = tested on: T47D
[32] = tested on: UACC-257
[33] = tested on: SK-MEL-5
[34] = tested on: HCC 2998
[35] = tested on: SK-MEL-2
[36] = tested on: NCI-H522
[37] = tested on: SN12C
[38] = tested on: RPMI-8226
[39] = tested on: IGROV-1
[40] = tested on: MDA-MB-231
[41] = tested on: OVCAR-4
[42] = tested on: DU-145
[43] = tested on: PC-3
[44] = tested on: ACHN
[45] = tested on: TK-10
[46] = tested on: HCT-15
[47] = tested on: K562
[48] = tested on: KM12
[49] = tested on: 786-0
[50] = tested on: CCRF-CEM
[51] = tested on: MCF7
[52] = tested on: MDA-MB-435
[53] = tested on: UACC-62
[54] = tested on: U-251
[55] = tested on: NCI/ADR-RES
[56] = tested on: DMS-273
[57] = tested on: SNB-78
[58] = tested on: HL-60
[59] = tested on: HOP-18
[60] = tested on: LXFL 529
[61] = tested on: XF498
[62] = tested on: HT-29
[63] = tested on: DLD-1
[64] = tested on: NCI-H226
[65] = tested on: SF-539
[66] = tested on: M19-MEL
[67] = tested on: KM-20L2
[68] = tested on: DMS-114

Measured: GI50

O=C1Cc2c([nH]c3ccc(C(F)(F)F)cc23)-c2cc(Br)ccc2N1
inactive: [1] > 100000 nM | [2] > 100000 nM | [3] > 100000 nM | [4] > 100000 nM | [5] > 100000 nM | [6] > 100000 nM | [7] > 100000 nM | [8] > 100000 nM | [9] > 100000 nM | [10] > 100000 nM | [11] > 100000 nM | [12] > 100000 nM | [13] > 100000 nM | [14] > 100000 nM | [15] > 100000 nM | [16] > 100000 nM | [17] > 100000 nM | [18] > 100000 nM | [19] > 100000 nM | [20] > 100000 nM | [21] > 100000 nM | [22] > 100000 nM | [23] > 100000 nM | [24] > 100000 nM | [25] > 100000 nM | [26] > 100000 nM | [27] > 100000 nM | [28] > 100000 nM | [29] > 100000 nM | [30] > 100000 nM | [31] > 100000 nM | [32] > 100000 nM | [33] > 100000 nM | [34] > 100000 nM | [35] > 100000 nM | [36] > 100000 nM | [37] > 100000 nM | [38] > 100000 nM | [39] > 100000 nM | [40] > 100000 nM | [41] > 100000 nM | [42] > 100000 nM | [43] > 100000 nM | [44] > 100000 nM | [45] > 100000 nM | [47] > 100000 nM | [48] > 100000 nM | [49] > 100000 nM | [50] > 100000 nM | [51] > 100000 nM | [52] > 100000 nM | [53] > 100000 nM | [54] > 100000 nM | [55] > 100000 nM
> 100000 nM: [46]

CCOC(=O)NC1CCc2cc(OC)c(OC)c(OC)c2-c2ccc(OC)c(=O)cc21 (stereo not drawn)
25.1 nM: [46]
active: [1] 34.5 nM | [2] < 10 nM | [56] < 10 nM | [57] < 10 nM | [4] 19.4 nM | [58] 19.2 nM | [5] < 10 nM | [7] 23.7 nM | [8] 21.2 nM | [9] 19.8 nM | [10] 29.6 nM | [11] 568 nM | [12] 20 nM | [60] 10.1 nM | [13] 31.8 nM | [14] 32.7 nM | [15] 104 nM | [16] 24.9 nM | [17] 29.6 nM | [18] 22.8 nM | [19] 24.4 nM | [20] 19.2 nM | [21] 25.6 nM | [61] 31.4 nM | [22] < 10 nM | [23] 23.6 nM | [24] 21.3 nM | [25] 22 nM | [26] 19.5 nM | [27] 27.5 nM | [62] 18.7 nM | [63] 11 nM | [28] 25.9 nM | [64] 93.5 nM | [30] 11.8 nM | [32] 36.8 nM | [33] 16.1 nM | [34] 25.5 nM | [35] 19.5 nM | [36] 18 nM | [65] 20.2 nM | [66] < 10 nM | [37] 25.9 nM | [38] 118 nM | [39] 26.2 nM | [40] 37.1 nM | [42] 45.4 nM | [43] 45.8 nM | [44] 39.5 nM | [67] < 10 nM | [47] 20.8 nM | [48] 16.1 nM | [49] 24.5 nM | [50] 31.1 nM | [51] 26.2 nM | [52] 22.6 nM | [68] 10.8 nM | [53] 15.3 nM | [54] 20.6 nM | [55] 259 nM
inactive: [3] 15100 nM | [59] 41100 nM | [6] 1160 nM | [29] 1360 nM | [31] > 100000 nM | [41] 9590 nM | [45] 1140 nM
